# Source: the supplement of paper PMC11417369
# ± gives the standard deviation of the averaged measurements. The list shows a part of the results.
# Test system: PfAP2-G AP2 domain (GST-tagged)
# Assay: gcPBM binding intensity (ln(normalized median fluorescence intensity)); higher = stronger DNA binding
# Outline: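 GST-tagged P. falciparum DNA-binding domains, expressed in E. coli (about 25 μg on average), were applied for 1 h to an Agilent 4 × 180k array of primer-extended double-stranded 36-bp intergenic genomic probes plus negative controls. The binding buffer was 1× PBS with 1% milk, 0.2 mg/ml BSA, 0.5% salmon testes DNA and 0.03% Triton X-100. Bound protein was detected with Alexa488 anti-GST antibody and scanned at 488 nm. Binding intensity is the highest Masliner-normalised natural-log median intensity across replicate spots of either probe orientation.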
row,Sequence,gcPBM binding intensity (ln)
1,AAAAAAAAAAAAATTGCATGTAAATGAAATAATAAA [TGCATGCA_site116],9.6 ± 0.16
2,CCTATAAAACCATATACACACATATATATAAAAAAA [CACACA_site4013],10.1 ± 0.23
3,TGTTTCTAAAAATTTACACACAAAATATTTCTACAT [CACACA_site4098],9.975 ± 0.078
4,TTATACGATAATATGACACACAATACAAAAATGTAA [CACACA_site1918],10.2 ± 0.14
5,TAATTTCTTATGTATTGTACAAATAATATATTATAT [XGTACX_site1037],10.9 ± 0.64
6,TTTTCTGTGTTTTTGGGTACACACAAATAGCTTGTA [XGTACX_site8553],11.6 ± 1.1
7,TGGGTATATATAAAAGGTACACAAAATGAAGATATA [XGTACX_site4994],11.3 ± 0.8
8,ATATGTGTTAAAAATGCACACAAAAAAATATACATA [CACACA_site7988],10.2 ± 0.16
9,CAATTTTACTCATAAACACACATATATATGTTATTA [CACACA_site3152],9.975 ± 0.035
10,AATAATAACAAATGAACACACATATAGATGAGCAAA [CACACA_site7076],9.93 ± 0.18
11,CTTAAGTAAAATTAAAGTACATGGACAAAAAATATA [XGTACX_site7900],11.4 ± 0.85
12,TATCTCATGCGCACAAAAATATATGCAAAGAGTATA [TGCATGCA_negctrl_site201],10.3 ± 0.4
13,ATGGTTTAATTATATACACACTCGAAAATAACGACA [CACACA_site3258],10.2 ± 0.25
14,TGATATTATATTGTGATGCACTTTAAAAATATAAAG [GTGCAC_site9509],10.2 ± 0.17
15,CTTATTTTATTCGAATGTACATAATTGTTAGACATT [XGTACX_site8583],11 ± 0.75
16,TTTTACAAATGTTTTACACACACATAATTGTATCAA [CACACA_site4166],10.1 ± 0.13
17,AAAAAAAGGATGTACGTATCATAATTTTATTTTATA [CACACA_negctrl_site1543],11.5 ± 0.93
18,AACATAATTAAAAATTGTACAGAATTTCAATCGAAA [XGTACX_site7542],10.8 ± 0.56
19,TTTTTTTTTTTTAATACACACATATATATATTTATT [CACACA_site3994],9.82 ± 0.3

row,Sequence,gcPBM binding intensity (ln)
1,GTAAAAAAAAAAAAATGTACACATATATATAATATA [XGTACX_site159],11.4 ± 0.82
2,ATAAAAATGTATATATGTACATATATATATATATAT [XGTACX_site1505],11.4 ± 0.6
3,CTTTTTAATTAATACACACACACACCCATATATATA [CACACA_site2292],10.3 ± 0.35
4,ATCACTTGAGAATAATTACATTAATATATATTTATG [TGCATGCA_negctrl_site581],9.67 ± 0.13
5,TGAAATTTTATTAATGTGCACATATATTTATTGTTC,10.4 ± 0.31
6,GGGAAAGAACCATATACATGCATATTTACCGTTAAA [TGCATGCA_site519],10 ± 0.28
7,CATATACATACACATACACACATACAGACATACACA [CACACA_site6919],10.2 ± 0.17
8,TATAAAATTACATTTTGTCATTTATTTTTTCCCACT [TGCATGCA_negctrl_site110],9.71 ± 0.042
9,TGTTTAAGTGTTTTTAGTACTTATAAAAATATTATC [XGTACX_site7379],11.1 ± 0.63
10,TTTCTTTCTATTGTTATATTTATAATAATTATAATT [XGTACX_negctrl_site215],9.875 ± 0.035
11,ATATTATCCCTATTTGCACACAAGAGTAATTTTTTA [CACACA_site3908],10.2 ± 0.2
12,TTTTATAGAGTGTATACATGCAATACCACATAAAAT [TGCATGCA_site476],10.4 ± 0.18
13,ATATGGAAGAATTAAAGTACTTAAAAAAATGTCAGT [XGTACX_site6837],11.3 ± 0.79
14,AAGAAAATAAAATAAAATAAAATAAAATAAAAATAT [TGCATGCA_negctrl_site493],9.46 ± 0.15
15,TATAATTTATAAGTAGTGCATTTCTTTTCATTTTTA,10.03 ± 0.057
16,ATTGTCTTTTAATAGTGTACTTATTTTAAATATTGC [XGTACX_site8517],11.6 ± 0.94
17,TTTCTAATATATAAAGTGCAATACCATTCAGAGTTA,10.2 ± 0.25
18,TTATTATATATAAGTAGTACAAACAATTAAGAGATA [XGTACX_site4009],11.6 ± 0.97
19,TGATGATATAAAAACACACACATATAACATAATACT [CACACA_site6687],10 ± 0.057

row,Sequence,gcPBM binding intensity (ln)
1,TTTTTATTGTTGTACTTATATTATTTTATTATTAAA [GTGCAC_negctrl_site200],11.4 ± 0.88
2,CTAATATATATCAATTGTACATATTGAATAAGAACA [XGTACX_site4541],10.9 ± 0.49
3,GACTTTTCAATTTTTCGTACGTATAAATTGTATACA [XGTACX_site1488],11.1 ± 0.7
4,TTTTGTTACTTTTATGTGCACTTATAAAACGAACTA [GTGCAC_site9551],10.7 ± 0.52
5,TATTAAACTGGACACACACACACACCCATATATAAA [CACACA_site4579],10.9 ± 0.53
6,TTTTGAAGTAACAAATAAATAAATAAATATATAAAA [GTGCAC_negctrl_site517],10 ± 0.2
7,ATTCATTCATATGTTACACACACACCGACACATAAA [CACACA_site5749],10.3 ± 0.18
8,AAAATAATCACATATTGTACAAAAAAATTTATTAAA [XGTACX_site3239],10.9 ± 0.56
9,TATATTAATATGAAAAGTACACATTCTATATATATA [XGTACX_site929],11.4 ± 0.91
10,ACATAATTTGATAATACACACAAATAATCTAAAATT [CACACA_site129],10.01 ± 0.021
11,ATCATTTGCTCACGCACACACACATAAAAAGAAAAA [CACACA_site4349],10.5 ± 0.52
12,ATTATGTACAAAATGGTGCAATATTATACATATATA [GTGCAC_site9468],10.8 ± 0.57
13,AAAAATAGTATAAGTAGTACAACTGAAAAGTTATGT [XGTACX_site7488],11.6 ± 0.86
14,AAAAAATGGATGATCACACACTTCATAAAAATTGCA [CACACA_site5256],9.935 ± 0.035
15,AAAAAAAAAAAAAAATGTACCCATATATAAATATAT [XGTACX_site4061],11.2 ± 0.72
16,TTTAATTATAAAACGTGTACATAATTATAATTACAT [XGTACX_site2206],11.6 ± 1
17,TATATTTAGAATACAATCTTAAAGTTGAAATAAAAT [CACACA_negctrl_site1292],9.82 ± 0.18
18,TTGTTAAATATTTATAAAATGAATTTAAAATGTACT [CACACA_negctrl_site665],10.01 ± 0.092
19,ACATTCATAAAAAAAAGTACATTTTTTATAAAAGAA [XGTACX_site6197],11.4 ± 0.75
